Assay results taken from PMC10668032.
The list shows a part of the results. At the low end of the ranking the order means little.

Each sequence was assayed against SIX1-Q177R homeodomain (UniProt Q15475) (assay: universal protein binding microarray). Details: Universal all-10-mer PBM (8x60K, AMADID 030236), 300 nM GST-tagged protein, Alexa Fluor 488 anti-GST; buffer, salt, pH and temperature not stated; high values mean tight binding; most listed sequences are background and not binding sites; double strand, one strand shown.

Sequence	binding signal
AGATGGCC	-0.0633 E-score
CAGGTCTC	-0.132 E-score
GCACTTAC	0.113 E-score
AACGGGCA	-0.0113 E-score
CTGATAGA	-0.167 E-score
CCAATACC	0.0218 E-score
ATGAATAA	-0.0713 E-score
CTCGAGTC	0.0169 E-score
ATGCAACA	0.139 E-score
AGCGCTCA	-0.301 E-score
AAAGTACA	-0.00211 E-score
CAGCTGGG	-0.00666 E-score
CTCTAAAC	-0.0553 E-score
GCGTCAAA	-0.00411 E-score
CTCCATGC	0.0261 E-score
AGGCCTTC	-0.251 E-score
AACTACCT	-0.051 E-score
ACCTACAC	0.43 E-score
ATATTTGC	-0.169 E-score
AGACCCGC	0.0588 E-score
ACCAATCA	-0.0578 E-score
AAGACGAA	-0.262 E-score

Sequence	binding signal
AAGGAACC	0.0483 E-score
CCCCCGAA	0.238 E-score
CCTACCGA	-0.0459 E-score
AAATGCCA	-0.204 E-score
AGCCGCAG	-0.203 E-score
GAGGCAAA	-0.168 E-score
AGTGTACA	0.418 E-score
GACTGTTA	-0.104 E-score
AACCGCGG	0.138 E-score
CCCGAAGG	0.193 E-score
GCATCCGC	-0.00277 E-score
CGTGAACA	0.159 E-score
ATGATCTA	-0.0256 E-score
ATCCATTC	-0.189 E-score
GATTCGAA	-0.191 E-score
AATGTCAT	-0.333 E-score
ACGTAGTC	-0.0835 E-score
ATTATTGC	-0.0119 E-score
TCAACTAA	-0.183 E-score
GCGGCTAC	0.0214 E-score
ACGACGAC	-0.171 E-score
AGACAAGG	0.0303 E-score

Sequence	binding signal
CCGGTCCA	-0.12 E-score
CTACCTTA	0.148 E-score
CAGCGACC	0.0907 E-score
ACGGGGCA	0.0112 E-score
AGCTAACC	-0.01 E-score
ATGGTGGG	0.0232 E-score
GCAAGCGC	-0.112 E-score
CCAGCGGC	-0.237 E-score
GGACCTCA	-0.207 E-score
GAAGAATC	-0.206 E-score
CACTTGAG	0.0805 E-score
CAGAGTGA	0.0717 E-score
CAGTTAAA	-0.273 E-score
GCTCTCTA	-0.276 E-score
AAATCTCT	-0.111 E-score
CTGTAGAA	-0.0519 E-score
ATACGGCC	-0.0407 E-score
GGCGTCGA	0.0573 E-score
ATTATTGA	-0.115 E-score
CTGGCTCA	-0.115 E-score
ATAATATG	-0.131 E-score
GAGATCCA	-0.0274 E-score

Sequence	binding signal
AATGTCCC	-0.115 E-score
GAGTGCGC	0.0118 E-score
GACATACA	0.114 E-score
ATCTCTCA	0.0317 E-score
CGGCTATC	-0.14 E-score
CTATCAAA	-0.236 E-score
AGCAAAAC	-0.188 E-score
ATGGAAGA	-0.102 E-score
ATTATTCA	0.0631 E-score
AGGTGGAT	0.0507 E-score
ACATCAAT	-0.186 E-score
GTGGCCGA	-0.16 E-score
GTATAACA	0.228 E-score
CCCGAATC	-0.00989 E-score
GAGGTACA	0.252 E-score
AAGTGACC	0.151 E-score
ACTATCAA	0.0313 E-score
AAAATACA	0.121 E-score
AGCTAGGG	0.0311 E-score
ACAATGGA	0.131 E-score
ACCCACGC	0.171 E-score
CATGTTTC	-0.262 E-score

Sequence	binding signal
ATACCTTC	0.146 E-score
ACGGGGGA	0.208 E-score
GCGCCGCA	0.109 E-score
GATATCCA	-0.00568 E-score
ACGAATAT	-0.183 E-score
CACTGCCA	0.101 E-score
GCTTCGTA	-0.154 E-score
AGGAGGCA	-0.176 E-score
GGTTTAGA	0.0315 E-score
ACTGGGAA	0.12 E-score
ACGTGTGC	0.16 E-score
ATCTGAAT	0.0168 E-score
ACGAGGAT	-0.0644 E-score
ATTCGAAT	-0.362 E-score
CTAGCAGA	-0.196 E-score
GGGACTAC	-0.15 E-score
AGTTTCTA	-0.257 E-score
CTTAGTAC	0.0868 E-score
AATAACTA	-0.203 E-score
GAGCTTGC	-0.116 E-score
CATCTCAC	0.133 E-score
